# Data taken from the GPR68 mutational scans of Howard et al. (2025).
# The least precise scores are not listed. The source holds two more conditions with little spread; they are left out. In variant names, del marks residues removed and ins residues inserted between the two positions. For some of these results: The data file names ogerin without a concentration.
# B1: GPR68, Q15743 (parent)
# chain: MGNITADNSSMSCTIDHTIHQTLAPVVYVTVLVVGFPANCLSLYFGYLQIKARNELGVYLCNLTVADLFYICSLPFWLQYVLQHDNWSHGDLSCQVCGILLYENIYISVGFLCCISVDRYLAVAHPFRFHQFRTLKAAVGVSVVIWAKELLTSIYFLMHEEVIEDENQHRVCFEHYPIQAWQRAINYYRFLVGFLFPICLLLASYQGILRAVRRSHGTQKSRKDQIQRLVLSTVVIFLACFLPYHVLLLVRSVWEASCDFAKGVFNAYHFSLLLTSFNCVADPVLYCFVSETTHRDLARLRGACLAFLTCSRTGRAREAYPLGAPEASGKSGAQGEEPELLTKLHPAFQTPNSPGSGGFPTGRLA
# Tests used:
# [1] = variants of: B1; test: cAMP reporter score (Enrich2 score, wild type = 0); higher = more signal; HEK293T, FACS bins
# [2] = variants of: B1; test: surface expression score (Enrich2 score, wild type = 0); higher = more signal; HEK293T, FACS bins
Variant,cAMP reporter score ([1]; pH 5.5),cAMP reporter score ([1]; pH 6),"cAMP reporter score ([1]; pH 6, modulator: ogerin)","cAMP reporter score ([1]; pH 6.5, modulator: ogerin)",surface expression score [2]
MGNITADNSSMSCTIDHTIHQTLAPVVYVTVLVVGFPANCLSLYFGYLQIKARNELGVYLCNLTVADLFYICSLPFWLQYVLQHDNWSHGDLSCQVCGILLYENIYISVGFLCCISVDRYLAVAHPFRFHQFRTLKAAVGVSVVIWAKELLTSIYFLMHEETIEDENQHRVCFEHYPIQAWQRAINYYRFLVGFLFPICLLLASYQGILRAVRRSHGTQKSRKDQIQRLVLSTVVIFLACFLPYHVLLLVRSVWEASCDFAKGVFNAYHFSLLLTSFNCVADPVLYCFVSETTHRDLARLRGACLAFLTCSRTGRAREAYPLGAPEASGKSGAQGEEPELLTKLHPAFQTPNSPGSGGFPTGRLA [V162T],0.235,-1.73,-0.547,-1.13,0.941
MGNITADNSSMSCTIDHTIHQTLAPVVYVTVLVVGFPANCLSLYFGYLQIKARNELGVYLCNLTVADLFYICSLPFWLQYVLQHDNWSHGDLSCQVCGILLYENIYISVGFLCCISVDRYLAVAHPFRFHQFRTLKAAVGVSVVIWAKELLTSIYFLMHEEWIEDENQHRVCFEHYPIQAWQRAINYYRFLVGFLFPICLLLASYQGILRAVRRSHGTQKSRKDQIQRLVLSTVVIFLACFLPYHVLLLVRSVWEASCDFAKGVFNAYHFSLLLTSFNCVADPVLYCFVSETTHRDLARLRGACLAFLTCSRTGRAREAYPLGAPEASGKSGAQGEEPELLTKLHPAFQTPNSPGSGGFPTGRLA [V162W],-1.81,-1.36,-1.4,-0.625,1.15
